27 molecules from the antibiotic and cytotoxicity screens of Wong et al. (2023) can be followed below.

The other results are listed elsewhere or left out.

Experiment [1] deals with HSkMC (human skeletal muscle cells). Nature of the experiment: cytotoxicity call (relative viability < 0.9). Conditions: 10 µM.
Experiment [2] concerns HepG2. Nature of the experiment: cytotoxicity call (relative viability < 0.9). Conditions: 10 µM.
The subject of experiment [3] is S. aureus RN4220. Description: growth inhibition call (relative growth <= 0.2). Conditions: 50 µM.

`C[C@@H]1CN([C@@H](C)CO)S(=O)(=O)c2ccc(C#Cc3ccncc3)cc2O[C@@H]1CN(C)C(=O)c1ccncc1`: the cytotoxicity call in experiment [1] and in experiment [2] was “inactive” each time. For the same molecule, the growth inhibition call in experiment [3] is “inactive”.

As to `C[C@@H]1CN([C@@H](C)CO)C(=O)CCCn2cc(nn2)CO[C@H]1CN(C)S(=O)(=O)c1ccc(Oc2ccccc2)nc1`, the cytotoxicity call in experiment [1] and in experiment [2] was “inactive” throughout. Further, in experiment [3], the growth inhibition call was “inactive”.

As for `C[C@@H]1CCCCO[C@@H](CN(C)Cc2ccc(C(F)(F)F)cc2)[C@@H](C)CN([C@H](C)CO)C(=O)c2cc(NS(=O)(=O)c3ccc(F)cc3)ccc2O1`, the cytotoxicity call in experiment [1] was “inactive”. In experiment [2], the cytotoxicity call is “active”. The growth inhibition call in experiment [3] is “inactive”.

As to `CCCN(C)C[C@H]1OCCCC[C@@H](C)Oc2ccc(NC(=O)Nc3ccc(OC)cc3)cc2C(=O)N([C@@H](C)CO)C[C@H]1C`, the cytotoxicity call in experiment [1] and in experiment [2] was “inactive” each time. For the same molecule, in experiment [3], the growth inhibition call is “inactive”.

`Nc1ccccc1C(=O)CC(N)C(=O)O` (stereo unspecified): the cytotoxicity call in experiment [1] and in experiment [2] was “inactive” each time. Besides, the growth inhibition call in experiment [3] was “inactive”.

As for `COc1ccc2oc(C(C)=O)cc2c1`, the cytotoxicity call in experiment [1] and in experiment [2] was “inactive” in each case. Moreover, the growth inhibition call in experiment [3] was “inactive”.

In the case of `Cc1noc(C)c1NC(=O)Nc1ccc2c(c1)CC(=O)N([C@H](C)CO)C[C@@H](C)[C@H](CN(C)Cc1ccc(-c3ccccc3)cc1)O2`, the cytotoxicity call in experiment [1] and in experiment [2] was “inactive” throughout. In experiment [3], the growth inhibition call is “inactive”.

Turning to `C[C@H](CO)N1C[C@H](C)[C@H](CN(C)C(=O)Nc2cccc(F)c2)Oc2ncc(C#CCN(C)C)cc2C1=O`, the cytotoxicity call in experiment [1] and in experiment [2] was “inactive” in each case. For the same molecule, the growth inhibition call in experiment [3] was “inactive”.

As to `C[C@H](CO)N1C[C@H](C)[C@@H](CN(C)S(C)(=O)=O)OCCCC[C@H](C)Oc2ccc(NS(=O)(=O)c3ccc(F)cc3)cc2C1=O`, the cytotoxicity call in experiment [1] and in experiment [2] was “inactive” throughout. For the same molecule, the growth inhibition call in experiment [3] is “inactive”.

With `CS(=O)(=O)Cc1ccc(C(=O)O)cc1`, the cytotoxicity call in experiment [1] and in experiment [2] was “inactive” each time. For the same molecule, in experiment [3], the growth inhibition call was “inactive”.

Consider `COc1ccccc1NC(=O)N(C)C[C@@H]1OCc2ccccc2-c2c(n(C)c3ccccc23)C(=O)N([C@H](C)CO)C[C@@H]1C`, for which the cytotoxicity call in experiment [1] and in experiment [2] was “inactive” each time. For the same molecule, the growth inhibition call in experiment [3] is “inactive”.

`CCNC(=O)[C@H]1[C@H](CO)[C@H]2Cn3c(ccc(-c4ccccc4OC)c3=O)[C@H]2N1S(C)(=O)=O`: the cytotoxicity call in experiment [1] and in experiment [2] was “inactive” throughout. Also, in experiment [3], the growth inhibition call is “inactive”.

`Cc1noc(C)c1S(=O)(=O)Nc1ccc2c(c1)C(=O)N([C@@H](C)CO)C[C@H](C)[C@H](CN(C)C(=O)Nc1ccccc1)OCCCC[C@H](C)O2`: the cytotoxicity call in experiment [1] and in experiment [2] was “inactive” in each case. Also, the growth inhibition call in experiment [3] was “inactive”.

On to `Nc1cccc(C2=NCCN2)c1`, for which the cytotoxicity call in experiment [1] and in experiment [2] was “inactive” in each case. Also, the growth inhibition call in experiment [3] is “inactive”.

As to `Cc1noc(C)c1NC(=O)Nc1ccc2c(c1)C(=O)N([C@H](C)CO)C[C@H](C)[C@H](CN(C)CC1CCCCC1)OCCCC[C@H](C)O2`, the cytotoxicity call in experiment [1] and in experiment [2] was “inactive” throughout. For the same molecule, in experiment [3], the growth inhibition call was “inactive”.

As to `Cc1ccc(S(=O)(=O)N(C)C[C@H]2Oc3c(NC(=O)C4CCOCC4)cccc3C(=O)N([C@H](C)CO)C[C@@H]2C)cc1`, the cytotoxicity call in experiment [1] and in experiment [2] was “inactive” throughout. Moreover, the growth inhibition call in experiment [3] is “inactive”.

Regarding `C[C@@H]1CN([C@H](C)CO)C(=O)Cc2cc(NS(=O)(=O)c3cn(C)cn3)ccc2O[C@H]1CN(C)Cc1ccc(C(=O)O)cc1`, the cytotoxicity call in experiment [1] and in experiment [2] was “inactive” in each case. Further, in experiment [3], the growth inhibition call is “inactive”.

For `C/C=C1\[C@H](O[C@@H]2O[C@H](CO)[C@@H](O)[C@H](O)[C@H]2O)OC=C(C(=O)OC)[C@H]1CC(=O)OC`, the cytotoxicity call in experiment [1] and in experiment [2] was “inactive” in each case. Also, the growth inhibition call in experiment [3] is “inactive”.

With `CCOC(=O)N(C)C[C@H]1OCc2cn(nn2)CCCC(=O)N([C@H](C)CO)C[C@H]1C`, the cytotoxicity call in experiment [1] and in experiment [2] was “inactive” in each case. Also, the growth inhibition call in experiment [3] is “inactive”.

On to `CC(C)NC(=O)Nc1ccc2c(c1)CC(=O)N([C@H](C)CO)C[C@@H](C)[C@@H](CN(C)S(=O)(=O)c1cccs1)O2`, for which the cytotoxicity call in experiment [1] and in experiment [2] was “inactive” in each case. For the same molecule, the growth inhibition call in experiment [3] is “inactive”.

As to `COc1ccc(S(=O)(=O)Nc2ccc3c(c2)C(=O)N([C@@H](C)CO)C[C@H](C)[C@H](CN(C)Cc2ccc4c(c2)OCO4)OCCCC[C@H](C)O3)cc1`, the cytotoxicity call in experiment [1] and in experiment [2] was “inactive” in each case. In addition, the growth inhibition call in experiment [3] was “inactive”.

As to `CCC(=O)N[C@@H]1CC[C@H](CC(=O)OC)O[C@H]1CO`, the cytotoxicity call in experiment [1] and in experiment [2] was “inactive” throughout. Moreover, in experiment [3], the growth inhibition call is “inactive”.

Consider `CCNC(=O)C[C@H]1C=C[C@@H](NC(=O)C2CCOCC2)[C@@H](CO)O1`, for which the cytotoxicity call in experiment [1] and in experiment [2] was “inactive” each time. Besides, the growth inhibition call in experiment [3] is “inactive”.

Turning to `CN(C)C(=O)C[C@H]1CC[C@H](NC(=O)C2CC2)[C@@H](CO)O1`, the cytotoxicity call in experiment [1] and in experiment [2] was “inactive” throughout. Also, in experiment [3], the growth inhibition call was “inactive”.

As to `[N-]=[N+]=NCc1ccccc1C[C@]1(C(=O)NC[C@@H](O)CO)N=C(c2ccc(OCCCO)cc2)O[C@H]1c1ccccc1`, the cytotoxicity call in experiment [1] and in experiment [2] was “inactive” in each case. Besides, the growth inhibition call in experiment [3] is “inactive”.

`COCC(=O)N1C[C@H](C)[C@H](OC)CN(C)C(=O)c2ccc(NC(=O)c3cc(C)on3)cc2OC[C@H]1C`: the cytotoxicity call in experiment [1] and in experiment [2] was “inactive” each time. Also, in experiment [3], the growth inhibition call was “inactive”.

Take `O=C(C[C@H]1CC[C@@H]2[C@H](COC[C@H](O)CN2S(=O)(=O)c2cccc(F)c2)O1)NCCCN1CCOCC1`: the cytotoxicity call in experiment [1] and in experiment [2] was “inactive” each time. Also, the growth inhibition call in experiment [3] is “inactive”.
